Laboratory results reported in the supplement of paper PMC3334620.
In all, about 33,000 sequences were measured (“E-score (-0.5 to 0.5)”: median about -0.043, highest 2% from about 0.37 on). Some of the results follow.

Biological target: T1, Upc2 (UniProt Q12151)
T1 sequence: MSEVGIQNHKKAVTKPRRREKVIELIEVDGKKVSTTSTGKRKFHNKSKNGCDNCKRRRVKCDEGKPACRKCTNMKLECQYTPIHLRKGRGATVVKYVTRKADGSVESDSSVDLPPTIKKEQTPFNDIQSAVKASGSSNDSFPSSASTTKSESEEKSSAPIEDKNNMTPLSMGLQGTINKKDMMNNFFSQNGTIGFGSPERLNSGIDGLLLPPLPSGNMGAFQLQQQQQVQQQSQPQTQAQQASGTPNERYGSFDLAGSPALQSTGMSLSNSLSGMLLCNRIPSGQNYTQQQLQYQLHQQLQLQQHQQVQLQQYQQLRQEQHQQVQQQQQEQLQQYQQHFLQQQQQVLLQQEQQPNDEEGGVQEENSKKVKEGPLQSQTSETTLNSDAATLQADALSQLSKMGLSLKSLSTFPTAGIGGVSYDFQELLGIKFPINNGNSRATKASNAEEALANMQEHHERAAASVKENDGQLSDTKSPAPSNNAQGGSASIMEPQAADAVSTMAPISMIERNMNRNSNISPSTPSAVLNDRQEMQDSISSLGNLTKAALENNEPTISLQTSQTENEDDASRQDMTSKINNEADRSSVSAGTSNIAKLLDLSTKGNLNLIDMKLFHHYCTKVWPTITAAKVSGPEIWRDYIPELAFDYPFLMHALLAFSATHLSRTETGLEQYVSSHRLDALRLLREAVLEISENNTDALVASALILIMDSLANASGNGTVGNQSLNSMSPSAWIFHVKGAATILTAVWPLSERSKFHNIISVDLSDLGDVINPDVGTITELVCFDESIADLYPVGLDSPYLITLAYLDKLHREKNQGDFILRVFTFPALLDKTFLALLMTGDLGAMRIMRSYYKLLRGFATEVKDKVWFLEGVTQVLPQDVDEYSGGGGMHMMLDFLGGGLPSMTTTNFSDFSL
Experiment: PBM E-score (8-mer binding enrichment) (E-score (-0.5 to 0.5)); higher = stronger / more preferred TF binding; most listed sequences are background and not binding sites
Settings: protein concentration: 200 nM; construct: GST-full length
Method in brief: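 Full-length yeast transcription factors or their DNA-binding domains, GST-tagged and expressed with PURExpress, were applied at about 100-200 nM to universal all-10-mer Agilent arrays. These arrays had been made double-stranded by primer extension on fresh or once-stripped slides. Detection used fluorescent anti-GST, normalisation used masliner, and E-scores for ungapped eight-base words pooled with reverse complements came from the Universal PBM Analysis Suite.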

Sequence	PBM E-score
CTCAGGGA	-0.231
GCCAATCC	-0.0973
GTTGTGCA	0.0168
AACTTCGT	0.32
CCCACCCG	0.0201
GTTTTTGA	0.00143
ATGTACTC	-0.112
ACCCAATG	-0.306
ACGGCATC	0.213
GCCTTCTA	0.0289
AGCCTCAA	-0.154
ACCTTATC	-0.0439
AAGACGGT	-0.166
CCGGTGGC	-0.168
ATTACCCG	-0.0755
ATGCTTCC	0.019
ACACGGCA	0.119
CTCCGCTC	-0.0256
ACAGGCAG	-0.133
ACACCTGA	0.0227
GTTAGCGA	0.194
AAGGAATC	-0.115
CACTGACA	0.0345
CATCAATG	-0.228
CTGTTCAC	-0.0614

Sequence	PBM E-score
CTCCGGTA	0.0616
AAAGTCTG	-0.14
TCAGCTCA	-0.115
CTTCTATA	0.0642
CATACGAG	0.486
AATACCCT	-0.0205
GCGCAGGA	-0.149
CCTTACCC	-0.184
AAAGCTTG	0.139
GGGTTCTA	-0.194
AAAAGCCC	-0.219
AGTGAGGA	-0.0674
TTAACTAA	0.0891
AACCTGGG	-0.262
GCAAAGTA	0.0637
TCCCCACA	-0.394
AAGGTTGT	-0.213
CCCGCACA	0.13
GCTTCCAA	-0.0831
ACGGATCA	0.115
CCGGTATA	0.266
AAATTCTA	0.035
GCTTTGCC	-0.205
AGCGGCGA	0.0126
AGTCAATA	-0.111

Sequence	PBM E-score
AAAGGCGA	0.048
GGCGCTAC	-0.0337
ACACGGTG	-0.0718
CGGATCGA	0.0496
CCAACCCA	-0.236
ATTCAGGC	0.0405
CCACGGTC	-0.176
ACGACCAT	0.355
AGGTCAAT	-0.0612
GTGCATCA	-0.0319
AGAGCGTC	0.0902
GGCAGCTA	-0.107
AAGGCAGG	-0.367
AACGTGAG	-0.0661
CAGCCAAC	-0.176
CTATATAA	-0.0174
AATATTCT	0.0301
CAGAACTG	0.164
AGCGGTAT	0.0777
CGGACCCA	-0.078
ATTCCTAG	-0.257
ACGGCTTG	0.0582
CGGTGTGC	-0.123
ACTGTACA	0.133
TAAAAAAA	0.0499

Sequence	PBM E-score
GGTTGAGA	-0.183
TATCTGGA	-0.156
ACTTCTAC	0.00587
CGCCGACA	0.0133
CACGCCGC	-0.142
AGCGTGTC	-0.117
ACCAGGAT	-0.0837
CCTCCGGC	-0.0747
CTATATGA	0.0471
TCCTGACA	-0.183
ACACCAAT	-0.051
ATTATAGG	-0.029
AAACCAAC	-0.161
CAAGTGCA	-0.255
AATTACAC	-0.0651
GCAATTAC	-0.0538
TAATCAAA	-0.0608
AAACCTAT	-0.131
CAATAAGG	-0.351
ACTGACCA	0.00146
ATGGCGGC	-0.257
CCTCTACG	0.317
GCAGATCA	-0.161
ATACATTG	-0.0164
ATGTAGGC	-0.255

Sequence	PBM E-score
AGGCAACA	-0.253
AGGCGGAA	-0.0749
GGGCGGTA	-0.0676
TCGCACAA	0.182
TCGCTGAA	0.143
ATAAGTGG	0.00439
AACGTGCG	0.229
CTACTTCA	-0.188
CGCACCAC	-0.136
CGAATTAG	0.0301
GCGGACTA	-0.0999
CACCTTCG	0.051
GGGTATAC	0.255
ATACTACG	0.113
CAGCCATC	-0.0262
AGCGGGCG	0.0149
CAGGTCGG	-0.193
ACCACTTA	0.0727
GCAGGAGA	-0.102
CTATCCGC	0.204
GACCCAGC	-0.145
CTTATTGA	-0.104
AATTAAAC	0.275
CAAAGTAC	0.151
CACGAATA	0.175

Sequence	PBM E-score
AGGCTTAG	-0.0922
GCAAGGAA	-0.0986
ACCCGTAT	0.396
GCGTCTAC	0.00637
AGATTCTA	0.111
AACAACAC	-0.09
AAGAGACT	-0.0974
CCATTCGG	-0.0319
CTCGGTAA	0.232
AGATATCT	-0.353
AGATGGGC	-0.192
TAGTAATA	-0.0623
ACTACCAT	0.053
ACTAGGGA	-0.056
AAGCTTAT	-0.0584
CGAACCCG	0.171
CAATAGGA	-0.183
ACAAACGC	0.225
ACGCCGAA	0.221
CGAAACCA	0.201
ACCGATAT	0.0732
CATCAATA	0.0679
AACATTAC	-0.194
CGCGAAAC	0.137
CGTACGTA	0.364

Sequence	PBM E-score
AGCGCAGA	-0.0537
GTTAAGTA	0.0459
CTCATATA	-0.0874
CGCATCCC	0.0259
AATATCGA	-0.118
CAGCCGAA	-0.101
CACGGGAG	-0.163
ACGGGCCT	0.078
CGCCGGTA	0.0435
AAACTATT	-0.0103
GATCCGGC	-0.0848
CTGATGCA	-0.163
ATGAATCC	-0.0932
GCATTCCA	-0.123
ATGGTGAA	-0.0469
AAAACTAA	0.109
ACCAATTC	-0.113
CGGCTCCA	-0.143
ATTCCGCC	-0.136
CAAACAGA	-0.0761
CCAGTGCG	-0.0422
CATGTTGC	-0.0436
ATCTTTAG	-0.079
CCACTCGG	0.0488
TATACGCA	0.449

Sequence	PBM E-score
AGTCGCGC	0.0136
CCGATGAC	-0.0589
CGTCCTGC	-0.214
CGATGACC	0.198
ACAGCGAT	0.0232
AATAAGGT	-0.0384
ATGATAAG	-0.088
ACAAGCGT	0.0145
ATCTAGGA	-0.0379
GACGCCGC	-0.0285
ACCCGGCA	-0.0931
CCGCAATA	-0.0199
CAACAAAG	-0.00411
ACAGTACG	0.289
GATACGAA	0.454
ATACGTTC	0.342
CAAATCGA	0.0385
GGTGCTTA	-0.0437
ACTCTATC	-0.123
CGTTTGAA	0.35
CGTACGAG	0.465
GCGTGAAC	0.178
AAGGTGGC	-0.0337
CTATGAAG	-0.114
ATGCGCAT	0.0386

Sequence	PBM E-score
CGATGAGC	0.0788
AATAGTAC	0.168
ATCGGGCG	-0.11
AATGAACC	-0.215
ACCACCGT	0.256
AATATTCC	0.0175
ACGGGGGG	0.144
AGCCTCAC	-0.132
CCGAATGA	0.136
CGGCGCAC	-0.108
GCTCTGTA	0.0266
AGTAAAAA	-0.0254
AGTAGGGA	-0.108
ATCTCCTC	-0.15
CTACGCTC	-0.0609
AAGGGTTA	-0.0151
ATTTTGCG	0.117
GCGCCCCC	-0.275
CCGTCGAG	-0.0803
